# The other results are listed elsewhere or left out.
# B1: GS13686A-pdi-553-26-553 (Parabacteroides distasonis) (protein)
# chain: NENPDKPTDDVNYNMNEPRLASTLRGGLIIEGNVEQRLKPLQIDFYSQMTVDGGGWGTKNYIQDDEWNNLVWEEYLKQIASINIVIRSLTEKDKDAYANTIAFARIWRVYVHTLAADKFGPMPFPAYEIVEANPPYKSLKDIYDEYFRELDAAINGFNDSAQPIFSDAGIDLIYKNDVSKWKRFANSLRLRLAVRLTEVDQEKCIAEANAAISSPAGLISDKADNAYMPPKADGSWGQDYNYTMFQITWSGPICMSKSVEKLVTNIGGVAWPQGVVNQTSGVAVSSVHPEKVDPRAPKIFQPGIENGDWKGLVYGPKAEEANTGIYQSKQCAELGFIIKDGYPYKSRPYDLFLSEEVHFLKAELYARGFIAGDAKSEYEAGVRASFATWGVTSEVDDYLTSTEKNEAGTSARYDDQQGAGNTALEKIITQKYIAGIPDLAQEGWNDKRRLNLPRLDVAVYRDQAVYNNNDKDILKSANFIKRMRYPTKESLINATEYEKGKSMLGGKGDIVSTPLWWDKNSNYCTSSK
# Tests used:
# Assay in all cases: glycan array binding signal (z-score within array); higher = stronger binding
# Conditions in all cases: glycan notation: IUPAC condensed, linker removed
# [1] = molecular target: Man(a1-2)Man(a1-3)[Man(a1-2)Man(a1-6)]Man(a1-6)[Man(a1-2)Man(a1-2)Man(a1-3)]Man
# In short: (§1)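 The binding signal is a Z-score computed within each array and averaged over linkers. Arrays of the same protein sequence at different concentrations or buffers were also averaged together. Data originate from 3228 arrays in the Consortium for Functional Glycomics database, kept only where the protein sequence was available.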
# [2] = molecular target: Man(a1-2)Man(a1-3)[Man(a1-2)Man(a1-6)]Man(a1-6)[Man(a1-2)Man(a1-2)Man(a1-3)]Man(b1-4)GlcNAc(b1-4)GlcNAc
# In short: as §1
# [3] = molecular target: Man(a1-2)Man(a1-3)[Man(a1-6)]Man(a1-6)[Man(a1-2)Man(a1-3)]Man(b1-4)GlcNAc(b1-4)GlcNAc
# In short: as §1
# [4] = molecular target: Man(a1-2)Man(a1-6)[Man(a1-3)]Man(a1-6)[Man(a1-2)Man(a1-2)Man(a1-3)]Man
# In short: as §1
# [5] = molecular target: Man(a1-2)Man(a1-6)[Man(a1-3)]Man(a1-6)[Man(a1-2)Man(a1-2)Man(a1-3)]Man(b1-4)GlcNAc(b1-4)GlcNAc
# In short: as §1
# [6] = molecular target: Man(a1-3)[Man(a1-6)]Man
# In short: as §1
# [7] = molecular target: Man(a1-3)[Man(a1-6)]Man(a1-6)[Man(a1-2)Man(a1-3)]Man(b1-4)GlcNAc(b1-4)GlcNAc
# In short: as §1
# [8] = molecular target: Man(a1-3)[Man(a1-6)]Man(a1-6)[Man(a1-3)]Man
# In short: as §1
# [9] = molecular target: Man(a1-3)[Man(a1-6)]Man(a1-6)[Man(a1-3)]Man(b1-4)GlcNAc(b1-4)GlcNAc
# In short: as §1
# [10] = molecular target: Man(a1-3)[Man(a1-6)]Man(b1-4)GlcNAc(b1-4)GlcNAc
# In short: as §1
# [11] = molecular target: Man(a1-3)[Man(a1-6)]Man(b1-4)GlcNAc(b1-4)[Fuc(a1-6)]GlcNAc
# In short: as §1
# [12] = molecular target: Man(a1-6)Man
# In short: as §1
# [13] = molecular target: Man(b1-4)GlcNAc
# In short: as §1
# [14] = molecular target: MurNAc(b1-4)GlcNAc
# In short: as §1
# [15] = molecular target: Neu5Ac(a2-3)Gal
# In short: as §1
# [16] = molecular target: Neu5Ac(a2-3)Gal(b1-3)GalNAc
# In short: as §1
# [17] = molecular target: Neu5Ac(a2-3)Gal(b1-3)GalNAc(b1-3)Gal(a1-4)Gal(b1-4)Glc
# In short: as §1
# [18] = molecular target: Neu5Ac(a2-3)Gal(b1-3)GalNAc(b1-4)[Neu5Ac(a2-3)]Gal(b1-4)Glc
# In short: as §1
# [19] = molecular target: Neu5Ac(a2-3)Gal(b1-3)GalNAc(b1-4)[Neu5Ac(a2-8)Neu5Ac(a2-3)]Gal(b1-4)Glc
# In short: as §1
# [20] = molecular target: Neu5Ac(a2-3)Gal(b1-3)GalNAc6S
# In short: as §1
# [21] = molecular target: Neu5Ac(a2-3)Gal(b1-3)GlcNAc
# In short: as §1
# [22] = molecular target: Neu5Ac(a2-3)Gal(b1-3)GlcNAc(b1-2)Man
# In short: as §1
# [23] = molecular target: Neu5Ac(a2-3)Gal(b1-3)GlcNAc(b1-2)Man(a1-3)[GlcNAc(b1-4)][Neu5Ac(a2-3)Gal(b1-3)GlcNAc(b1-2)Man(a1-6)]Man(b1-4)GlcNAc(b1-4)GlcNAc
# In short: as §1
# [24] = molecular target: Neu5Ac(a2-3)Gal(b1-3)GlcNAc(b1-2)Man(a1-3)[Neu5Ac(a2-3)Gal(b1-3)GlcNAc(b1-2)Man(a1-6)]Man(b1-4)GlcNAc(b1-4)GlcNAc
# In short: as §1
# [25] = molecular target: Neu5Ac(a2-3)Gal(b1-3)GlcNAc(b1-3)Gal(b1-3)GlcNAc
# In short: as §1
# [26] = molecular target: Neu5Ac(a2-3)Gal(b1-3)GlcNAc(b1-3)Gal(b1-4)GlcNAc
# In short: as §1
# [27] = molecular target: Neu5Ac(a2-3)Gal(b1-3)GlcNAc(b1-3)GalNAc
# In short: as §1
# [28] = molecular target: Neu5Ac(a2-3)Gal(b1-3)GlcNAc(b1-4)Gal(b1-4)Glc
# In short: as §1
# [29] = molecular target: Neu5Ac(a2-3)Gal(b1-3)GlcNAc(b1-6)GalNAc
# In short: as §1
# [30] = molecular target: Neu5Ac(a2-3)Gal(b1-3)GlcNAc6S
# In short: as §1
# [31] = molecular target: Neu5Ac(a2-3)Gal(b1-3)[Fuc(a1-4)]GlcNAc
# In short: as §1
# [32] = molecular target: Neu5Ac(a2-3)Gal(b1-3)[Fuc(a1-4)]GlcNAc(b1-3)Gal(b1-3)[Fuc(a1-4)]GlcNAc
# In short: as §1
# [33] = molecular target: Neu5Ac(a2-3)Gal(b1-3)[Fuc(a1-4)]GlcNAc(b1-3)Gal(b1-4)[Fuc(a1-3)]GlcNAc
# In short: as §1
# [34] = molecular target: Neu5Ac(a2-3)Gal(b1-3)[GlcNAc(b1-6)]GalNAc
# In short: as §1
# [35] = molecular target: Neu5Ac(a2-3)Gal(b1-3)[Neu5Ac(a2-6)]GalNAc
# In short: as §1
# [36] = molecular target: Neu5Ac(a2-3)Gal(b1-3)[Neu5Ac(a2-6)]GlcNAc(b1-3)[Fuc(a1-3)[Gal(b1-4)]GlcNAc(b1-6)]Gal(b1-4)Glc
# In short: as §1
# [37] = molecular target: Neu5Ac(a2-3)Gal(b1-3)]Neu5Ac(a2-3)Gal(b1-4)]GlcNAc
# In short: as §1
binder,measurement,setting,value
B1,glycan array binding signal (z-score),[1],-0.101
same,glycan array binding signal (z-score),[2],-0.198
same,glycan array binding signal (z-score),[3],0.223
same,glycan array binding signal (z-score),[4],-0.039
same,glycan array binding signal (z-score),[5],-0.244
same,glycan array binding signal (z-score),[6],-0.167
same,glycan array binding signal (z-score),[7],0.162
same,glycan array binding signal (z-score),[8],-0.193
same,glycan array binding signal (z-score),[9],0.143
same,glycan array binding signal (z-score),[10],-0.281
same,glycan array binding signal (z-score),[11],0.037
same,glycan array binding signal (z-score),[12],0.458
same,glycan array binding signal (z-score),[13],0.156
same,glycan array binding signal (z-score),[14],-0.226
same,glycan array binding signal (z-score),[15],-0.326
same,glycan array binding signal (z-score),[16],-0.313
same,glycan array binding signal (z-score),[17],0.055
same,glycan array binding signal (z-score),[18],-0.071
same,glycan array binding signal (z-score),[19],0.189
same,glycan array binding signal (z-score),[20],-0.086
same,glycan array binding signal (z-score),[21],-0.174
same,glycan array binding signal (z-score),[22],-0.219
same,glycan array binding signal (z-score),[23],-0.226
same,glycan array binding signal (z-score),[24],-0.099
same,glycan array binding signal (z-score),[25],-0.316
same,glycan array binding signal (z-score),[26],-0.307
same,glycan array binding signal (z-score),[27],-0.238
same,glycan array binding signal (z-score),[28],-0.483
same,glycan array binding signal (z-score),[29],3.88
same,glycan array binding signal (z-score),[30],0.369
same,glycan array binding signal (z-score),[31],-0.154
same,glycan array binding signal (z-score),[32],-0.153
same,glycan array binding signal (z-score),[33],0.14
same,glycan array binding signal (z-score),[34],-0.277
same,glycan array binding signal (z-score),[35],-0.322
same,glycan array binding signal (z-score),[36],-0.086
same,glycan array binding signal (z-score),[37],-0.327

# — the supplement of paper PMC8728848
